# Results reported in the supplement of paper PMC4604168 (melanoma cell lines).
# Some of the results follow. Repeats are few or missing, and single values can be far off.
# Test system: RPMI7951
# Assay: cell count relative to DMSO control; melanoma cells; higher = more viable cells
# Details: library dose: standard library concentration; 72 h
# 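Note: cells treated in 1,536-well plates, then fixed and DAPI-stained, with nuclei counted from automated high-throughput microscope images.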
row,Structure (SMILES),cell count
1,"O=c1[nH]nc(Sc2ncc([N+](=O)[O-])s2)n1-c1ccc2c(c1)OCCO2 + Cn1nnc2c(C(N)=O)ncn2c1=O [temozolomide] (first compound 1 µM, partner dose 10 µM)",76.5%
2,"Cn1cncc1[C@@](N)(c1ccc(Cl)cc1)c1ccc2c(c1)c(-c1cccc(Cl)c1)cc(=O)n2C [tipifarnib] + O=C(O)C(=O)Nc1sc2c(c1C(=O)O)CCNC2 [TCS401] (first compound 0.05 µM, partner dose 8.33333 µM)",82.8%
3,"O=C(Nc1cccc(Cl)c1)Nc1ncc(CCNc2ncnc3ccsc23)s1 + CCc1ccc(CCOc2ccc(CC3SC(=O)NC3=O)cc2)nc1 [pioglitazone] (first compound 0.004 µM, partner dose 10 µM)",63.1%
4,"O=c1[nH]nc(Sc2ncc([N+](=O)[O-])s2)n1-c1ccc2c(c1)OCCO2 + O=C(O)c1ccc(-c2c[nH]c3ncc(-c4ccccc4)cc23)cc1C1CCCC1 [GSK650394] (first compound 1 µM, partner dose 0.8 µM)",82.6%
5,"O=c1[nH]nc(Sc2ncc([N+](=O)[O-])s2)n1-c1ccc2c(c1)OCCO2 + O=C(Nc1cccc(Cl)c1)Nc1ncc(CCNc2ncnc3ccsc23)s1 [SNS314] (first compound 1 µM, partner dose 0.004 µM)",46.5%
6,"COc1cc(Nc2ncc(F)c(Nc3ccc4c(n3)NC(=O)C(C)(C)O4)n2)cc(OC)c1OC [Tamatinib] + CCCCCCCCCCCC1=C(O)C(=O)C=C(O)C1=O [Embelin] (first compound 2 µM, partner dose 6 µM)",55.8%
7,"CC1(C)NC(=O)N(c2ccc([N+](=O)[O-])c(C(F)(F)F)c2)C1=O [nilutamide] + O=C1NC(=O)/C(=C/c2ccc(-c3ccc(F)cc3O)o2)S1 [AS252424] (first compound 5 µM, partner dose 5 µM)",112%
8,"Cn1cncc1[C@@](N)(c1ccc(Cl)cc1)c1ccc2c(c1)c(-c1cccc(Cl)c1)cc(=O)n2C [tipifarnib] + O=C(Nc1ccccc1)c1cc([N+](=O)[O-])ccc1Cl [GW9662] (first compound 0.05 µM, partner dose 10 µM)",52.7%
9,"O=c1[nH]nc(Sc2ncc([N+](=O)[O-])s2)n1-c1ccc2c(c1)OCCO2 + C[C@@H](N)c1ccc(C(=O)Nc2ccnc3[nH]ccc23)cc1 [RKI983] (first compound 1 µM, partner dose 2 µM)",56.6%
10,"O=C(O)c1ccc(-c2c[nH]c3ncc(-c4ccccc4)cc23)cc1C1CCCC1 + COc1cc(N2CCC(N3CCN(C)CC3)CC2)ccc1Nc1ncc(Cl)c(Nc2ccccc2S(=O)(=O)C(C)C)n1 [NVP-TAE684] (first compound 0.8 µM, partner dose 0.4 µM)",70%
11,"O=c1[nH]nc(Sc2ncc([N+](=O)[O-])s2)n1-c1ccc2c(c1)OCCO2 + COc1cc(Nc2ncc(F)c(Nc3ccc4c(n3)NC(=O)C(C)(C)O4)n2)cc(OC)c1OC [Tamatinib] (first compound 1 µM, partner dose 2 µM)",49.1%
12,"O=c1[nH]nc(Sc2ncc([N+](=O)[O-])s2)n1-c1ccc2c(c1)OCCO2 + COc1cc(N2CCC(N3CCN(C)CC3)CC2)ccc1Nc1ncc(Cl)c(Nc2ccccc2S(=O)(=O)C(C)C)n1 [NVP-TAE684] (first compound 1 µM, partner dose 0.4 µM)",80.5%
13,"COc1cc(Nc2ncc(F)c(Nc3ccc4c(n3)NC(=O)C(C)(C)O4)n2)cc(OC)c1OC [Tamatinib] + CC1(C)NC(=O)N(c2ccc([N+](=O)[O-])c(C(F)(F)F)c2)C1=O [nilutamide] (first compound 2 µM, partner dose 5 µM)",40.1%
14,"O=C(O)c1ccc(-c2c[nH]c3ncc(-c4ccccc4)cc23)cc1C1CCCC1 + COc1ccc2c(c1)CCC1C2CCC2(C)C(NCCCCCCN3C(=O)C=CC3=O)CCC12 [U73122] (first compound 0.8 µM, partner dose 2 µM)",25.1%
15,"O=c1[nH]nc(Sc2ncc([N+](=O)[O-])s2)n1-c1ccc2c(c1)OCCO2 + CO[C@@H]1[C@H](N(C)C(=O)c2ccccc2)C[C@H]2O[C@]1(C)n1c3ccccc3c3c4c(c5c6ccccc6n2c5c31)C(=O)NC4 [Midostaurin] (first compound 1 µM, partner dose 0.4 µM)",165%
16,"Cn1cncc1[C@@](N)(c1ccc(Cl)cc1)c1ccc2c(c1)c(-c1cccc(Cl)c1)cc(=O)n2C [tipifarnib] + NCC(=O)Nc1ccc(-n2nc(C(F)(F)F)cc2-c2ccc3c(ccc4ccccc43)c2)cc1 [OSU03012] (first compound 0.05 µM, partner dose 5 µM)",77.2%

row,Structure (SMILES),cell count
1,"C[C@@H]1CCN(C(=O)CC#N)C[C@@H]1N(C)c1ncnc2[nH]ccc12 + Cc1cc([N+](=O)[O-])ccc1NS(=O)(=O)c1cc(Cl)ccc1Cl [FH535] (first compound 5 µM, partner dose 5 µM)",88.1%
2,"CC1(C)NC(=O)N(c2ccc([N+](=O)[O-])c(C(F)(F)F)c2)C1=O [nilutamide] + N#Cc1c(O)c2c(-c3ccc(-c4ccccc4O)cc3)csc2[nH]c1=O [A769662] (first compound 5 µM, partner dose 10 µM)",100%
3,"O=c1[nH]nc(Sc2ncc([N+](=O)[O-])s2)n1-c1ccc2c(c1)OCCO2 + Cc1ccc(Nc2nccc(N(C)c3ccc4c(C)n(C)nc4c3)n2)cc1S(N)(=O)=O [Pazopanib] (first compound 1 µM, partner dose 2 µM)",89.5%
4,"O=C(Nc1cccc(Cl)c1)Nc1ncc(CCNc2ncnc3ccsc23)s1 + Oc1cc(-c2nc(-c3ccccc3)[nH]c2-c2ccncc2)ccc1Cl [L779450] (first compound 0.004 µM, partner dose 1 µM)",46.5%
5,"COc1cc(Nc2ncc(F)c(Nc3ccc4c(n3)NC(=O)C(C)(C)O4)n2)cc(OC)c1OC [Tamatinib] + CCN(CC)CCCCNc1ncc2cc(-c3cc(OC)cc(OC)c3)c(NC(=O)NC(C)(C)C)nc2n1 [PD173074] (first compound 2 µM, partner dose 0.5 µM)",33.3%
6,"O=c1[nH]nc(Sc2ncc([N+](=O)[O-])s2)n1-c1ccc2c(c1)OCCO2 + Nc1ncn([C@H]2C[C@H](O)[C@@H](CO)O2)c(=O)n1 [decitabine] (first compound 1 µM, partner dose 0.5 µM)",71.4%
7,"O=c1[nH]nc(Sc2ncc([N+](=O)[O-])s2)n1-c1ccc2c(c1)OCCO2 + C[C@]1(O)C[C@@H](c2nc(-c3ccc4ccc(-c5ccccc5)nc4c3)c3c(N)nccn32)C1 [OSI906] (first compound 1 µM, partner dose 2 µM)",71.4%
8,"O=c1[nH]nc(Sc2ncc([N+](=O)[O-])s2)n1-c1ccc2c(c1)OCCO2 + CCCCCCCCc1ccc(CCC(N)(CO)CO)cc1 [fingolimod] (first compound 1 µM, partner dose 10 µM)",0.266%
9,"O=c1[nH]nc(Sc2ncc([N+](=O)[O-])s2)n1-c1ccc2c(c1)OCCO2 + COc1ccc(-c2ccc3c(N4CCOCC4)nc(N4C[C@@H](C)O[C@@H](C)C4)nc3n2)cc1CO [KU0063794] (first compound 1 µM, partner dose 0.1 µM)",97.1%
10,"COc1cc(Nc2ncc(F)c(Nc3ccc4c(n3)NC(=O)C(C)(C)O4)n2)cc(OC)c1OC [Tamatinib] + c1cc(-c2cnn3cc(-c4ccc(OCCN5CCCCC5)cc4)cnc23)ccn1 [Dorsomorphin] (first compound 2 µM, partner dose 2 µM)",31.3%
11,"O=C(Nc1cccc(Cl)c1)Nc1ncc(CCNc2ncnc3ccsc23)s1 + O=C1NC(=O)/C(=C/c2ccc(-c3ccc(F)cc3O)o2)S1 [AS252424] (first compound 0.004 µM, partner dose 5 µM)",38.6%
12,"CC1(C)NC(=O)N(c2ccc([N+](=O)[O-])c(C(F)(F)F)c2)C1=O [nilutamide] + Oc1cc(-c2nc(-c3ccccc3)[nH]c2-c2ccncc2)ccc1Cl [L779450] (first compound 5 µM, partner dose 1 µM)",74.4%
13,"O=C(O)c1ccc(-c2c[nH]c3ncc(-c4ccccc4)cc23)cc1C1CCCC1 + O=C1NC(=O)/C(=C/c2ccc(-c3ccc(F)cc3O)o2)S1 [AS252424] (first compound 0.8 µM, partner dose 5 µM)",76.7%
14,"O=C(Nc1cccc(Cl)c1)Nc1ncc(CCNc2ncnc3ccsc23)s1 + CN(C)S(=O)(=O)c1ccc2c(c1)/C(=C/c1cc3c([nH]1)CCCC3)C(=O)N2 [SU6656] (first compound 0.004 µM, partner dose 2 µM)",70.4%
15,"O=c1[nH]nc(Sc2ncc([N+](=O)[O-])s2)n1-c1ccc2c(c1)OCCO2 + O=C(/C=C/c1cccnc1)NCCCCC1CCN(C(=O)c2ccccc2)CC1 [FK866] (first compound 1 µM, partner dose 0.05 µM)",68.8%
16,"O=C(O)c1ccc(-c2c[nH]c3ncc(-c4ccccc4)cc23)cc1C1CCCC1 + CC(C)CCN1c2nc(Nc3cc(F)c(O)c(F)c3)ncc2N(C)C(=O)C1C [BID1870] (first compound 0.8 µM, partner dose 1 µM)",61.6%
